22 molecules from publication PMC12136788 can be followed below.

Some of the results follow.

T1: UNK ZnF1-3 (human, UniProt Q9C0B0 31-174)
T1 sequence: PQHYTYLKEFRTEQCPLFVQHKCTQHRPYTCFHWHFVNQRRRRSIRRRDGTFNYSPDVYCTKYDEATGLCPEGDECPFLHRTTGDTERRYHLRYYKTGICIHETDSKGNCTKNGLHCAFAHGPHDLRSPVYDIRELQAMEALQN

B1: 26022335_26029148_505_CDS_ENSG00000143970_ENST00000336112|human|control|control (ssRNA)
RNA: GGGAGUUCUACAGUCCGACGAUCAUCUGACUGACCAUCACUGCUUUCUUCUGAACCUUCUGACAGCUCUUUCACCCCAUCCGGCACAUCUUUCUUCAAAGUAUAUACUCCCAUUCUACCUGGAACCUUAUAGAAGAUGCCCUCCAACAGAGGAUUGAGCAUCA
B2: chr11:80292881:80292882:+_ENSMUSG00000048895_ENSMUST00000053413|mus_hu|FALSE|FALSE (ssRNA)
RNA: GGGAGUUCUACAGUCCGACGAUCAAACUCAACUGUUUAGAAACAGCUUUAAAUUAACGGGUGGGGGUGGGGUCACCACAUCGCCUUCCCCCCAGCUCUGCAGGACAAAUGUCAUGUGCACCAGCAAGAGGCCUUAGCCCUUAGCAACAGAGGAUUGAGCAUCA
B3: chr2:27599549:27599550:+_ENSG00000115234_ENST00000233575|hu_mus|FALSE|FALSE (ssRNA)
RNA: GGGAGUUCUACAGUCCGACGAUCCAGACAUCCAGGCAGCUGAGAUUACAGAUCCUCAUCUCCAAUGCCCUCGAAGGCGAAAUUGCCGUGGACGGCACUGGCACUGGCAUCUGUGCUGGGACUGCCAAUCCCCCGCAAGCUCACCAACAGAGGAUUGAGCAUCA
B4: chr15:98781188:98781189:-_ENSMUSG00000072235_ENSMUST00000097014|mus_mus|FALSE|FALSE (ssRNA)
RNA: GGGAGUUCUACAGUCCGACGAUCCCUGUUUAGGUUAGUGUAGGUUGGGCGCUCAAUGUCGAGGUUUCUACGACAGAUAUCAUAGAUGGCCUCAUUGUCUACCAUGAAGGCACAAUCAGAGUGCUCCAGGGUGGUGUGGGUGGUCAACAGAGGAUUGAGCAUCA
B5: chr8:101271117:101271118:-_ENSG00000034677_ENST00000519449|hu_mus|FALSE|FALSE (ssRNA)
RNA: GGGAGUUCUACAGUCCGACGAUCGCAAUCACUGGAGCCGUGACUACAGGACGUUCUCAUGCUUUCUAAGUCUGAGCAGCUAAAUUCAGAAAAAUGACUGGAGUGGGAAUCUGCUACAGACGGCAUGCUGUCACUGAGGGAUGGCAACAGAGGAUUGAGCAUCA
B6: 119673137_119674254_1728_3pUTR_ENSG00000158290_ENST00000371322|human|control|control (ssRNA)
RNA: GGGAGUUCUACAGUCCGACGAUCAUAUGAUCAUAAUUUUAUCCAACAUUUUCUCAAGUUCUUCAUCUGUAGCUUCUUUGUUGCCUGCACGAAGUUUUGAAUCUACAUACUUAGCUAUAAGUUCAGCUGGUUUAUUUGGUCUUUCAACAGAGGAUUGAGCAUCA
B7: 39222270_39222390_3320_CDS_ENSG00000115904_ENST00000402219|human|control|control (ssRNA)
RNA: GGGAGUUCUACAGUCCGACGAUCAAAAGGGCUCGAAUGAUCGGAAUCAAAUACACUGCAAACAUCUGUGGUACUGGAAGCACCAGAAGCAGGCGGAGGUGUUAACGGUGUUCUUGGAGAAUUUGGUGCAGAUGCUGUACUUUCCAACAGAGGAUUGAGCAUCA
B8: chr14:59828787:59828788:+_ENSMUSG00000035469_ENSMUST00000043227|mus_mus|motif|central (ssRNA)
RNA: GGGAGUUCUACAGUCCGACGAUCGAGUGAAGAUUGGCCACUUUCCUACAUCCACCAUGACUGUGGCUUUGGACAAUUCCGGUAAAUAAGCUGACAUCUCUGCUGCGUGCUCCGGGUUCCUCCCCCGCAGGGCGGACAGCGCAGCAACAGAGGAUUGAGCAUCA
B9: chr4:76721835:76721836:+_ENSG00000138768_ENST00000264904|hu_mus|hu_hu_hu_mus_True|18_38 (ssRNA)
RNA: GGGAGUUCUACAGUCCGACGAUCGUUUGGCUGGGGUUUCUGAGACGCUCUGGAAUAUAACUCAUGUUUGCUAAUAAAUCCUAGUUUCUCUAUGAAAUCUCUUUGCCCAAUCCUCUUUCAAUCAGUUUGCUUUAGUUUCUCUUUCAACAGAGGAUUGAGCAUCA
B10: chr11:10819206:10819207:-_ENSG00000110321_ENST00000525681|hu_mus|FALSE|FALSE (ssRNA)
RNA: GGGAGUUCUACAGUCCGACGAUCUGAUGGUAGACUAUGAUUAAGACAUCACACUACAAAAACCUUAUGCAGAAGGAAACCUUACUGACGUGCUUCUGCUUUAAAUAUUGUGAAAAAACGUUACAGCGGAAUGAAUUUUCGCAGCAACAGAGGAUUGAGCAUCA
B11: chr2:225400320:225400321:-_ENSG00000036257_ENST00000409096|hu_hu|FALSE|FALSE (ssRNA)
RNA: GGGAGUUCUACAGUCCGACGAUCGUUCUCCACAUUAUUUUGUUGUACAUACACACGGUCCAUGUACAUUAGUAUGUCUCUAAUCAUCACCAUAGCUGUUUGAUGAUCAUUCCAAGCUUGAUUUAGCGUUUGAAGAAAGUUGUUCAACAGAGGAUUGAGCAUCA
B12: chr1:244855233:244855234:+_ENSG00000121644_ENST00000302550|hu_mus|hu_hu_hu_mus_True|28_58 (ssRNA)
RNA: GGGAGUUCUACAGUCCGACGAUCCAUCAGAUGGUAGGCGUUGCCCUUAUACUCUUUCCCCAGUUCUUCUACAAUUUUUUCUAUAUCAUCUUCUAGAAAGUCCGUACUCCCUAAAACAACAGCUUCUUUAAAUUUAAAUGUUUCCAACAGAGGAUUGAGCAUCA
B13: 3699308_3700660_1297_CDS_ENSG00000130764_ENST00000378251|human|control|control (ssRNA)
RNA: GGGAGUUCUACAGUCCGACGAUCAUCCAGCAAGUGAAGGUAUCUGUGCAGGCCCGACACACUCUGCCGCUUCUUCUGCUUCCUCUGCUCCUCGGCCUCCAGCUGCAGCUGCCGCACCAGCUCCUUGGCCUUGGCUUCUUUCCGCAACAGAGGAUUGAGCAUCA
B14: chr3:88228879:88228880:-_ENSMUSG00000050144_ENSMUST00000057935|mus_mus|FALSE|FALSE (ssRNA)
RNA: GGGAGUUCUACAGUCCGACGAUCAUAUCCACUGCCUCCUCGACAGGUUGAACCUUAGGUACCUCUGAUCCUUCAAGACACCUAAGCACCGUGGUCGCUUUCCUUCUCAGACCCCAGCGCUUUAGCCGCGUCUGAGACUGGGACCAACAGAGGAUUGAGCAUCA
B15: chr11:86538636:86538637:-_ENSMUSG00000047126_ENSMUST00000103186|perfect_dup|FALSE|FALSE (ssRNA)
RNA: GGGAGUUCUACAGUCCGACGAUCUAACCAUUUCUCCAAAAGCUGUUUUCGCCCUUGCUGAAGUACAGGCCUACAAAGCUCUAAGGAUUCGUAUUUGUUGAGCUGUCCCUGGUCCAAAAGGAUACCAAAGUACUGAAGUAGAGGCAACAGAGGAUUGAGCAUCA
B16: chr3:90056536:90056537:+_ENSMUSG00000052310_ENSMUST00000015467|mus_hu|FALSE|FALSE (ssRNA)
RNA: GGGAGUUCUACAGUCCGACGAUCUCCUUAUGUAUAGUGUCCAACCUCUGAUUCUAGCAGUCAAGUGUCUUCCCCAAUCCUAAUGUCCCCUGAUAUGUCUCUAGCGACUUGACCAUCUCUUGUUCCUUGGGACUGGGGCCAGCCCAACAGAGGAUUGAGCAUCA
B17: chr20:42825305:42825306:-_ENSG00000132823_ENST00000255174|hu_hu|FALSE|FALSE (ssRNA)
RNA: GGGAGUUCUACAGUCCGACGAUCAUUAAAUCAGAGACGGUUUAAAUCAGUCUUGUAACUUCUAAUAUUCUGGGCUGGCAACUACAGCAUGACAAAUGUUUAGUGCAGUUACAAAAUCACAUUUUACUUUCCUUGGCUAGCAAACAACAGAGGAUUGAGCAUCA
B18: chr17:35975015:35975016:-_ENSMUSG00000001525_ENSMUST00000001566|mus_hu|FALSE|FALSE (ssRNA)
RNA: GGGAGUUCUACAGUCCGACGAUCAUCUGGUUGCCACACUGACCAGCCUGGAUGUGCACGAUUUCCCUCAUGGUUAAAAUUUAAUUUUUUUGCUCGCCUCAAGGUAUGUAUGGGGCAAGAAAAUAAGUAAUUUUUUUUCUCCGCCAACAGAGGAUUGAGCAUCA
B19: chr3:176740097:176740098:-_ENSG00000177565_ENST00000430069|hu_mus|hu_hu_hu_mus_True|18_48 (ssRNA)
RNA: GGGAGUUCUACAGUCCGACGAUCUGUUUUGUAUACCACAAAAGGAGGCACUUUCAGUAUCUGCAAAAGGUGUUUAGUCCUAAAACAUACUUACCUAGAGGAUAACUCAGGAAAACAUCAAUACAAUCUCUAAGACCUACUCCACAACAGAGGAUUGAGCAUCA
B20: chr4:76721835:76721836:+_ENSG00000138768_ENST00000264904|hu_mus|hu_hu_hu_mus_True|8_38 (ssRNA)
RNA: GGGAGUUCUACAGUCCGACGAUCGUUUGGCUGGGGUUUCUGAGACGCUCUGGAAUAUAACUCAUGUUUGCUAAUAAAUCCUAGUUUCUCUAUGAAAUCUCUUUGCCCAAUCCUCUUCUCUAUUAGUGUUUUAGCUUUCUCUUUCAACAGAGGAUUGAGCAUCA
B21: chr9:109937708:109937709:+_ENSMUSG00000032479_ENSMUST00000165876|mus_mus|FALSE|FALSE (ssRNA)
RNA: GGGAGUUCUACAGUCCGACGAUCCGGAGACAUGUCCUUGACUGAGGUUACCUCUUCUUCUGAAAGUGGAGUCACAUUGUUAAACUCAGCCACCUUUGUUUCUGGAAGUAUAACCACGUCCUUGCCCAGAGUCACUUCUGAUUCCAACAGAGGAUUGAGCAUCA
B22: chr10:33190432:33190433:-_ENSG00000150093_ENST00000302278|hu_mus|hu_hu_hu_mus_True|78_88 (ssRNA)
RNA: GGGAGUUCUACAGUCCGACGAUCUACAUUUUCCAAACCUGCAUGUGAGUAAAACCAUGGCAAUAUUGCCCCAAAACUACCCUACUGUGACUAAGAUGCUGCUGCUGUGAGCUUGGUGUUGCAAAAUCCGCCUGAGUAGGAUUCCAACAGAGGAUUGAGCAUCA

In this assay the target is T1, UNK ZnF1-3. Description: nsRBNS (natural sequence RNA bind-n-seq); RBNS binding buffer (assumed for nsRBNS): 25 mM Tris pH 7.5, 150 mM KCl, 3 mM MgCl2, 0.01% Triton X-100, 500 ug/ml BSA, 20 U/ml SUPERase-In, 4 C; UNK is unkempt and MSI1 is Musashi-1; names of the RNAs are library labels; protein concentration not given here; high values mean tight binding.
B1: the binding signal came to 1.05 enrichment R. The value for B2 was 1.1 enrichment R; that for B3 was 0.814 enrichment R; that for B4 was 0.649 enrichment R. In the case of B5, the binding signal came to 1.55 enrichment R. The molecule B6 returned a binding signal of 0.343 enrichment R. As for B7, the binding signal was found to be 1.17 enrichment R. The value for B8 was 1.21 enrichment R; that for B9 was 0.446 enrichment R. As for B10, the binding signal is 0.952 enrichment R. For the molecule B11, the binding signal came to 0.505 enrichment R.

In the case of B12, the binding signal was found to be 1.49 enrichment R.

Turning to B13, the binding signal was 0.701 enrichment R. In turn, B14 registered a binding signal of 0.592 enrichment R. Molecule B15 displayed a binding signal of 0.908 enrichment R. In turn, B16 registered a binding signal of 0.662 enrichment R. The molecule B17 had a binding signal of 0.802 enrichment R. B18: the binding signal is 0.844 enrichment R. B19 returned a binding signal of 0.874 enrichment R. B20 displayed a binding signal of 0.471 enrichment R. The value for B21 was 0.501 enrichment R; that for B22 was 0.997 enrichment R.
